# From ChEMBL document CHEMBL5606460, “ASAP - DENV-2 NS2B-NS3 protease fluorescence single point” (2024)
# The campaign covered roughly 2,000 compounds. About 110 (5.5%) showed an effect of 50% or more. This is one part of the list.
# Target: Genome polyprotein (dengue virus type 2) (UniProt P29990)
# [1] = Thailand/16681/1984, Concentration 25.0 uM, Number of replicates 1.0
compound,measurement,setting,value
O=Cc1ccc(N2CCC(C(=O)NCc3ccc(I)cc3)CC2)cc1,inhibition,[1],13.4%
O=C(Nc1cccc(O)c1)c1cccc(OCc2c(Cl)cccc2Cl)c1,inhibition,"Thailand/16681/1984, Concentration 49.5 uM, Number of replicates 2.0, Standard deviation 2.2599777431890864 %",6.58%
same,inhibition,"Thailand/16681/1984, Concentration 99.01 uM, Number of replicates 2.0, Standard deviation 0.8121141369648937 %",8.41%
same,inhibition,"Thailand/16681/1984, Concentration 198.0 uM, Number of replicates 2.0, Standard deviation 0.4931997238761773 %",11.9%
O=Cc1ccc(N2CCC(C(=O)NCCSc3ccc(Cl)cc3)CC2)cc1,inhibition,[1],6.43%
COc1cc(COc2cc(C)nc3ncnn23)nc(N2CCNCC2)n1,inhibition,"Thailand/16681/1984, Concentration 49.5 uM, Number of replicates 2.0, Standard deviation 19.015038260433418 %",2.91%
same,inhibition,"Thailand/16681/1984, Concentration 99.01 uM, Number of replicates 2.0, Standard deviation 2.9676776148278794 %",-6.71%
same,inhibition,"Thailand/16681/1984, Concentration 198.0 uM, Number of replicates 2.0, Standard deviation 6.9135926030191905 %",-3.12%
C[C@H](NC(=O)C1CCN(c2ccc(C=O)cc2)CC1)c1cc(F)ccc1F,inhibition,[1],11%
NC(=O)c1sccc1NS(=O)(=O)c1ccc(Oc2ccccc2)cc1,inhibition,"Thailand/16681/1984, Concentration 49.5 uM, Number of replicates 2.0, Standard deviation 0.12353190722324828 %",3.89%
same,inhibition,"Thailand/16681/1984, Concentration 99.01 uM, Number of replicates 2.0, Standard deviation 0.11961073302518874 %",8.6%
same,inhibition,"Thailand/16681/1984, Concentration 198.0 uM, Number of replicates 2.0, Standard deviation 0.07843359920483335 %",16.6%
O=C(O)c1cccc(NC(=O)c2cccnc2)c1,inhibition,"Thailand/16681/1984, Concentration 49.5 uM, Number of replicates 2.0, Standard deviation 0.5754076787322825 %",-0.074%
same,inhibition,"Thailand/16681/1984, Concentration 99.01 uM, Number of replicates 2.0, Standard deviation 0.4240348488616172 %",0.945%
same,inhibition,"Thailand/16681/1984, Concentration 198.0 uM, Number of replicates 2.0, Standard deviation 0.6389174792744691 %",2.26%
COc1cc2nc(Cl)nc(NC(=O)C3CCN(c4ccc(C=O)cc4)CC3)c2cc1OC,inhibition,[1],14.4%
Cc1ccc(CN(C(=O)C2CCN(c3ccc(C=O)cc3)CC2)C2CC2)s1,inhibition,[1],14.9%
CCCCCCCCCCNC(=O)C1CCN(c2ccc(C=O)cc2)CC1,inhibition,[1],13.4%
NCc1cccc(NC(=O)[C@@H](NC(=O)OCc2ccccc2)c2ccc(OCc3ccccc3)cc2)c1,inhibition,"Thailand/16681/1984, Concentration 49.5 uM, Number of replicates 2.0, Standard deviation 0.05193031216203084 %",99.8%
same,inhibition,"Thailand/16681/1984, Concentration 99.01 uM, Number of replicates 2.0, Standard deviation 0.07343936624368645 %",99.8%
same,inhibition,"Thailand/16681/1984, Concentration 198.0 uM, Number of replicates 2.0, Standard deviation 0.025182910572653226 %",99.6%
CN1[C@@H]2CCC[C@H]1C[C@@H](NC(=O)C1CCN(c3ccc(C=O)cc3)CC1)C2,inhibition,[1],13.1%
O=Cc1ccc(N2CCC(C(=O)NCC(c3ccccc3)c3ccccc3)CC2)cc1,inhibition,[1],-2.96%
Cn1cc(NC(=O)c2ccccc2C(F)(F)F)c(-c2cnn(C)n2)n1,inhibition,"Thailand/16681/1984, Concentration 49.5 uM, Number of replicates 2.0, Standard deviation 0.32036291597833877 %",-2.97%
same,inhibition,"Thailand/16681/1984, Concentration 99.01 uM, Number of replicates 2.0, Standard deviation 1.175972600606475 %",-3.46%
same,inhibition,"Thailand/16681/1984, Concentration 198.0 uM, Number of replicates 2.0, Standard deviation 1.0582279614459547 %",-3.2%
Cc1cc(Cl)c2cccc(NC(=O)CCN)c2n1,inhibition,"Thailand/16681/1984, Concentration 49.95 uM, Number of replicates 2.0, Standard deviation 0.0008200090846279543 %",99.2%
same,inhibition,"Thailand/16681/1984, Concentration 99.9 uM, Number of replicates 2.0, Standard deviation 0.04112992935002318 %",98.9%
NCCOc1ccc2c(c1)B(O)OC2,inhibition,"Thailand/16681/1984, Concentration 49.5 uM, Number of replicates 2.0, Standard deviation 1.4321505867497555 %",3.29%
same,inhibition,"Thailand/16681/1984, Concentration 99.01 uM, Number of replicates 2.0, Standard deviation 3.200083598299257 %",3.45%
same,inhibition,"Thailand/16681/1984, Concentration 198.0 uM, Number of replicates 2.0, Standard deviation 3.5663203243086112 %",3.25%
O=Cc1ccc(N2CCC(C(=O)NCC(=O)c3ccccc3F)CC2)cc1,inhibition,[1],12.6%
O=Cc1ccc(N2CCC(C(=O)Nc3cc(C(F)(F)F)ccc3N3CCCC3)CC2)cc1,inhibition,[1],-2.44%
CN(C)Cc1cc(C(=O)Nc2cc(Cl)cc(C(=O)NC(C)(C)CO)c2)ccn1,inhibition,"Thailand/16681/1984, Concentration 49.5 uM, Number of replicates 2.0, Standard deviation 0.8373879793632091 %",-0.805%
same,inhibition,"Thailand/16681/1984, Concentration 99.01 uM, Number of replicates 2.0, Standard deviation 1.3878191722501325 %",-0.768%
same,inhibition,"Thailand/16681/1984, Concentration 198.0 uM, Number of replicates 2.0, Standard deviation 1.150645337077672 %",-0.077%
O=Cc1ccc(N2CCC(C(=O)NCCC3CCN(Cc4ccccc4)CC3)CC2)cc1,inhibition,[1],12.2%
Cc1cc(CO)c2cccc(NC(=O)C[C@H]3CCCN3)c2n1,inhibition,"Thailand/16681/1984, Concentration 49.95 uM, Number of replicates 2.0, Standard deviation 1.87682580099837 %",7.72%
same,inhibition,"Thailand/16681/1984, Concentration 99.9 uM, Number of replicates 2.0, Standard deviation 2.520000533440925 %",13.9%
O=Cc1ccc(N2CCC(C(=O)N3CCC(Oc4cnccn4)CC3)CC2)cc1,inhibition,[1],14.7%
CN(C)CCCN(CCCN(C)C)C(=O)C1CCN(c2ccc(C=O)cc2)CC1,inhibition,[1],2.41%
CCn1ccnc(N2CC[C@@H](CO)C2)c1=O,inhibition,"Thailand/16681/1984, Concentration 49.5 uM, Number of replicates 2.0, Standard deviation 0.40547257598729775 %",8.04%
same,inhibition,"Thailand/16681/1984, Concentration 99.01 uM, Number of replicates 2.0, Standard deviation 0.38043701079703857 %",15.5%
same,inhibition,"Thailand/16681/1984, Concentration 198.0 uM, Number of replicates 2.0, Standard deviation 0.16218916526483432 %",28.5%
